The list shows a part of the results. Many values rest on one well or one pass, so single values are uncertain.
tested on: A549; assay: cell-surface PD-L1 MFI ratio relative to cisplatin alone (isotype-subtracted); higher = higher PD-L1 surface expression; conditions: inducer: cisplatin 4 uM; 10 µM; 24 h
Experimental: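 A549 and H460 NSCLC cells were treated with each library drug at 10 uM, then with radiation (8 Gy) or cisplatin (4 uM), and incubated for 24 h. Cell-surface PD-L1 was measured by flow cytometry as an MFI ratio: (MFI drug+inducer - MFI isotype)/(MFI inducer alone - MFI isotype). Hits were defined as ratio < 0.75.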

| Structure (SMILES) | cell-surface PD-L1 MFI ratio |
| --- | --- |
| COc1cc([C@@H]2c3cc4c(cc3[C@H](O)[C@H]3COC(=O)[C@@H]23)OCO4)cc(OC)c1OC [Picropodophyllin (PPP)] | inactive: 3.11 |
| CN1CCN(c2ccc([N+](=O)[O-])c3no[n+]([O-])c23)CC1 | inactive: 0.855 |
| COC(=O)[C@@H](N)CCCNC(=N)N[N+](=O)[O-] | active: 0.718 |
